# Data published in PubChem BioAssay AID686979 (National Center for Advancing Translational Sciences (NCATS), 2013).
# The whole screen tested about 420,000 compounds, of which about 50,000 (12%) were called active. The inconclusive results got no clear call from the source; some entries with a clear call stand among them for comparison. The call rests on the fitted dose curve; in most records, active means well fitted inhibition curve with a large enough effect; inconclusive means small, poorly fitted or top-dose-only effect; inactive means flat fitted curve, though single readings scatter. No potency is given beside an inconclusive call; the fits are too rough.
# Assay: qHTS for Inhibitors of human tyrosyl-DNA phosphodiesterase 1 (TDP1): qHTS in cells in presence of CPT; further: nearly all actives have a fitted effect of over 55% in size
# Conditions: chicken DT40 Tdp1-/-;hTDP1 cells + 20 nM CPT, ATP luminescence, 48 h; activity change, negative = growth inhibition: at 46.2 µM (top of the series) unless noted
# How it was run: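 Chicken DT40 Tdp1-/- cells stably complemented with human TDP1 were seeded at 400 cells/well in medium containing 20 nM camptothecin, exposed to pin-transferred compounds, and grown at 37 °C for at least 48 hr. Viability was read as ATP luminescence.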
# On the % scale 0 is the no-effect control and ±100 the full control effect; potency means the concentration at half of the fitted maximal effect; tags describe the fitted curve by direction and shape.
Structure (SMILES),Potency,"activity change, negative = growth inhibition"
Cn1cc(S(=O)(=O)NC2CCCCC2)c(=O)n(C)c1=O,inactive,–
COc1ccc(OC)c(C(=O)CSc2nccc(-c3ccc(Br)cc3)n2)c1,"inconclusive [inhibitor, single point]",–
O=C(Nc1ccc(N2CCCCC2)cc1)c1ccc2ccccc2n1,"inconclusive [inhibitor, partial curve]",–
CS(=O)(=O)N(Cc1cc2ccccc2[nH]c1=O)C1CCCCC1,"inconclusive [inhibitor, partial curve]",–
COc1ccc2[nH]c3c(c2c1)CCN1C(=O)N([C@@H](C)C(=O)NCCc2ccc(F)cc2)C(=O)[C@]31C,active: 23.1 µM,–
O=C1NC[C@H](Cc2ccc(O)cc2)N(C[C@@H]2CCCN2C[C@H](Cc2ccccc2)N2C[C@H](Cc3ccccc3)N(CC3CCCCC3)C(=O)C2=O)C1=O,"inconclusive [inhibitor, single point]",–
O=C(CCc1nc2ccccc2c(=O)[nH]1)NNC(=O)COc1cccc(F)c1,–,inconclusive: -31% [inhibitor]
Cc1onc(-c2ccccc2)c1C(=O)NCCN1Cc2ccccc2OC(c2ccsc2)C1 (centres undefined),–,inactive: -1.21% [at 9.04 µM]
CC(C)c1cc(C(=O)OCC(=O)NC2CC2)c(O)c(C(C)C)c1,"inconclusive [inhibitor, single point]",–
CCn1c(SCC(=O)N/N=C/c2ccc(C)o2)nnc1-c1ccc(C(C)(C)C)cc1,"inconclusive [inhibitor, single point]",–
CCN(CC)c1ccc(/C=N/n2c(-c3ccccc3Br)n[nH]c2=S)cc1,"inconclusive [inhibitor, single point]",–
Cc1cc(C)n(CCC(=O)Nc2cccc(F)c2)n1,inactive,–
O=C(COC(=O)c1cn(-c2ccccc2)nc1-c1cccnc1)NC1CC1,inactive,–
CCOC(=O)/C=C/COc1ccccc1[N+](=O)[O-],inactive,–
COCCNC(=O)c1cc(-c2ccc(-c3ccccc3)cc2)nc2ccccc12,active: 11.6 µM,–
COc1cc(CN2CCN(Cc3ccc(C)cc3)CC2)c([N+](=O)[O-])cc1OC,"inconclusive [inhibitor, single point]",–
COc1ccccc1-n1cnnc1SCC(=O)c1cc(C)n(Cc2cccs2)c1C,"inconclusive [inhibitor, single point]",–
CCOc1cc2[nH]c(=O)n(CCCCC(=O)N3CCN(c4ccccc4OC)CC3)c(=O)c2cc1OCC,active: 13 µM,–
O=C(NCc1cccc(C(F)(F)F)c1)c1ccc2nc([C@H]3C[C@H](O)[C@@H](CO)O3)[nH]c2c1,inactive,–
C[C@H](CO)N1C[C@H](C)[C@@H](CN(C)C(=O)Nc2ccc(C(F)(F)F)cc2)Oc2ccc(NC(=O)Nc3ccccc3)cc2C1=O,"inconclusive [inhibitor, single point]",–
Cc1ccccc1C(=O)Nc1sc2c(c1C(=O)N1CCC(C)CC1)CCC(C)C2 (centres undefined),active: 14.6 µM,–
COc1cccc(OC)c1/C=C/C(=O)NC1CCCCC1,inactive,–
Fc1ccccc1CN1CCC(Cc2ccccc2)CC1,"inconclusive [inhibitor, partial curve]",–

Structure (SMILES),Potency,"activity change, negative = growth inhibition"
Cc1cccc(C)c1-n1nnnc1C(c1ccccc1)N1CCN(C/C=C/c2ccccc2)CC1 (centres undefined),active: 20.6 µM,–
COc1cc(CNn2cn[nH]c2=S)cc(Br)c1OCc1ccccc1F,"inconclusive [inhibitor, single point]",–
CCc1cccc(NC(=O)Cn2c(=O)n3nc(-c4cccc(F)c4)nc3c3ccccc32)c1,active: 3.66 µM,–
O=C(CSc1nc2ccccc2[nH]1)Nc1c(F)c(F)c(F)c(F)c1F,"inconclusive [inhibitor, single point]",–
CCOc1ccc(-n2c(SCc3nc(-c4ccc(C)cc4)no3)nnc2-c2ccncc2)cc1,"inconclusive [inhibitor, single point]",–
CC(C)CCn1c(=O)c2c(nc3n2CCCN3Cc2ccccc2)n(C)c1=O,"inconclusive [inhibitor, single point]",–
Fc1cccc(Cl)c1CSc1nnc(CN2CCOCC2)n1-c1ccccc1,"inconclusive [inhibitor, single point]",–
COc1ccccc1C(=O)NCC(=O)N=Nc1c(O)n(C(C)C)c2ccccc12,"inconclusive [inhibitor, single point]",–
CCN1CCN(C(=S)Nc2ccc3nc4n(c(=O)c3c2)CCCCC4)CC1,inactive,–
COC(=O)c1sc(-c2ccccc2)cc1NC(C)=O,inactive,–
Cc1ccc(S(=O)(=O)N2[C@@H](c3cccc(Cl)c3)C(C(=O)O)=CC[C@H]2c2ccc3c(c2)OCO3)cc1,inactive,–
Cc1ccccc1CS(=O)(=O)Cc1ccc(C(=O)NCCc2ccc(Cl)cc2)o1,active: 20.6 µM,–
Cc1cn2c(=O)cc(COC(=O)c3ccc(NC(=O)c4ccccc4C)cc3)nc2s1,inactive,–
Cc1cc(Cl)ccc1OC(C)C(=O)Nc1ccccc1N1CCOCC1 (centres undefined),"inconclusive [inhibitor, single point]",–
O=C(NC1CCc2ccccc21)C12CN(Cc3ccccc3)CC1C(c1cccc([N+](=O)[O-])c1)=NO2 (centres undefined),"inconclusive [inhibitor, single point]",–
O=C(Nc1cccc([N+](=O)[O-])c1)c1cc2ccccc2cc1O,active: 4.11 µM,–
Cc1ccccc1NC(=O)COc1ccc2oc3c(c2c1)CCCC3,active: 16.4 µM,–
OCCC1CN(Cc2cn[nH]c2C2CCCCC2)CCN1Cc1ccccc1 (centres undefined),"inconclusive [inhibitor, single point]",–
Cc1ccc2c(CN(C)Cc3cccc(Cl)c3)cc(=O)oc2c1C,"inconclusive [inhibitor, partial curve, poor fit]",–
COc1ccccc1S(=O)(=O)N(C)C[C@@H]1OCc2cnnn2CCCC(=O)N([C@H](C)CO)C[C@H]1C,inactive,–
O=C(NCCC1=CCCCC1)c1cccc2c1C(=O)N(C1CCCCC1)C2,"inconclusive [inhibitor, single point]",–
CCOC(=O)N1CCC(NC(=O)c2cnn(-c3ccc(OC)cc3)c2C2CCN(C(=O)OC(C)(C)C)CC2)CC1,active: 18.4 µM,–
CCOC(=O)c1sc(NC(=O)c2cc3ccccc3o2)nc1C,inactive,–

Structure (SMILES),Potency,"activity change, negative = growth inhibition"
Fc1ccc2[nH]c3c(N4CCSCC4)ncnc3c2c1,active: 11.6 µM,–
COc1ccc(C(CNC(=O)c2oc3ccc(Br)cc3c2C)N2CCCCC2)cc1 (centres undefined),active: 13 µM,–
Cc1ccc(CSc2ncc(Cl)c(C(=O)Oc3ccccc3F)n2)cc1,inactive,–
Cc1cn(C)c(CC(=O)Nc2cccc(C#N)c2)c1C(=O)O,inactive,–
COC(=O)C1=CN(c2ccc(OC)cc2OC)C(N)=C(C#N)C1c1ccc(OC)cc1 (centres undefined),"inconclusive [inhibitor, single point]",–
Cc1ccc(Cn2c(=O)n(-c3cccc(C(F)(F)F)c3)c(=O)c3c(C)c(C)sc32)c(C)c1,"inconclusive [inhibitor, partial curve]",–
CCc1ccccc1NC(=S)N(CCN1CCCCC1)Cc1ccco1,inactive,–
COC(=O)c1ccc2nc(-c3cccc(Cl)c3)c(Cc3ccccc3)n2c1,active: 20.6 µM,–
CCC(=O)Nc1cc(C)c(NC(=O)C23CC4CC(CC(C4)C2)C3)cn1,inactive,–
Cc1ccnc(NC(=O)Cc2c(F)cccc2Cl)c1,"inconclusive [inhibitor, single point]",–
CCCOc1ccc(NC(=O)Cc2ccc(S(=O)(=O)N3CCOCC3)s2)cc1OCCC,"inconclusive [inhibitor, partial curve, poor fit]",–
COc1ccc(-c2cc3nc(C)c(CCC(=O)NCCc4ccc(Cl)cc4)c(C)n3n2)c(OC)c1,active: 13 µM,–
CCCCOc1ccc(C2C(C(=O)c3ccc(C)o3)=C(O)C(=O)N2CC2CCCO2)cc1 (centres undefined),"inconclusive [inhibitor, single point]",–
COCCNc1nc(NCCN2CCNC2=O)c2sc(-c3ccccc3)cc2n1,active: 25.9 µM,–
CCc1ccc2[nH]c(O)c(N=NC3=NC(=O)CS3)c2c1,active: 2.59 µM,–
Cc1ccc(-c2nn3c(=O)cc(CN4CCN(C(=O)Nc5cccc(C(F)(F)F)c5)CC4)nc3s2)cc1,"inconclusive [inhibitor, partial curve]",–
Cc1ccc2cccc(S(=O)(=O)N3CCN(c4ccccc4F)CC3)c2n1,"inconclusive [inhibitor, partial curve]",–
Cc1ccccc1NC(=O)c1cccc(Cn2cc(Br)c([N+](=O)[O-])n2)c1,"inconclusive [inhibitor, single point]",–
Cc1ccccc1OCCn1cc(C(=O)c2ccco2)c2ccccc21,"inconclusive [inhibitor, single point]",–
C#CCOCCOCCOCCNc1nc(N2CCN(C(=O)CCCCCCCCCCNC(=O)[C@H]([C@@H](C)CC)n3cc(CCCCCN)nn3)CC2)nc(N2CCN(C(=O)CCCCCCCCCCNC(=O)[C@@H]([C@H](C)O)n3cc(C)nn3)CC2)n1,active: 16.4 µM,–
COc1ccc([C@@H]2CC=C(C(=O)O)[C@H](c3cccc(Cl)c3)N2S(=O)(=O)c2ccccc2C)cc1,inactive,–
CC(C)(NC(=O)N1CCOCC1)c1cccc(C(C)(C)NC(=O)N2CCOCC2)c1,inactive,–
CCC(CO)Oc1cc(NCc2ccc(Cl)cc2)c2ncn(C(C)C)c2c1 (centres undefined),"inconclusive [inhibitor, single point]",–
